Whole data set: some 33,000 sequences, median “E-score (-0.5 to 0.5)” near -0.04, cut for the highest 2% near 0.36. This is one part of the list.
These sequences were tested against T1, Hmlalpha2 (UniProt P0CY09) (assay: PBM E-score (8-mer binding enrichment) (E-score (-0.5 to 0.5)); higher = stronger / more preferred TF binding; most listed sequences are background and not binding sites). Conditions: protein concentration: 200 nM; construct: GST-full length.
T1 sequence: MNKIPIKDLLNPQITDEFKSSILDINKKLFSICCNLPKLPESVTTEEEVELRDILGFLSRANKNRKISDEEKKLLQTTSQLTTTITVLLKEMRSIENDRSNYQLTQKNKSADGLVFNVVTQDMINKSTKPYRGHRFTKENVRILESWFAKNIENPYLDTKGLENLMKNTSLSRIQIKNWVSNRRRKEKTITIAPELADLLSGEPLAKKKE
How it was run: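 Each ungapped eight-base word and its reverse complement, pooled, received an E-score from the Universal PBM Analysis Suite. Underlying scans, normalised with masliner, recorded fluorescent anti-GST bound to GST-tagged yeast transcription factors. These were applied at about 100-200 nM to universal all-10-mer Agilent arrays double-stranded by primer extension.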

Sequence	PBM E-score
CTCCTCAG	-0.376
TCCGTCGA	-0.125
GTCATCGA	-0.0402
CTTCCAGC	-0.289
TCGAAACA	0.152
CTATAAGA	-0.198
ACCACCAG	-0.148
GCCCTTAC	-0.0944
ACTCGAGA	-0.17
CAGGGGCC	-0.205
GCGGGCAC	-0.0969
GTAGACAC	0.19
ACCGATGC	-0.222
CAAGAGCG	-0.184
ATGACTAA	-0.113
CCTGGGGA	-0.389
CGGTGTGA	0.0349
GAATGCGC	-0.00918
ATATGATC	0.0322
AGAGCGGC	-0.195
ATTGCCAA	-0.206
GTGAAGCA	-0.113
GCCAAAGA	-0.132
ACAGGCAA	0.0701
GACGGGTA	-0.103

Sequence	PBM E-score
CATAGGGC	-0.2
CATTCAGG	-0.254
AATGTGGA	0.0913
ACCGTATG	-0.0129
AGTGAAGG	-0.0841
ACCAAGAT	0.0339
CCACCAAA	-0.182
GCTGCTAC	-0.143
GATACTGA	-0.0889
CGTTTACA	0.452
CCATCTAG	-0.171
GGGCCGAC	-0.164
CCCATTAC	0.124
ACTCGGCG	-0.0699
CTTGCTAA	0.132
CCGGGGCA	-0.219
AAAACCCT	-0.022
CCATTCAC	-0.0258
CCATGGGA	-0.252
AGCCCCAT	-0.125
CCTGGGTA	-0.0828
CATGAGAA	0.194
CTTCCGTC	-0.213
ACCAACCA	-0.0314
CGTCGTTC	0.0974

Sequence	PBM E-score
CAGGGACC	-0.288
CATGCGAG	-0.0337
AGAAAATG	0.0892
AGCTTCAG	-0.18
AAGAAAGG	0.085
GCTGAGCC	-0.041
ACAGGGAT	0.0683
ATCGAAGC	-0.128
CACACCGA	0.101
ACATAACT	0.325
GGTTGACA	0.191
CAGGTAAA	0.236
CGGCCTAA	-0.0668
GGCGAGCC	-0.135
CGGTAACG	-0.18
AGATGAAA	0.0863
CTAGCGAA	-0.22
CATCGATC	-0.0854
CAGACGCA	-0.16
GATGGGAA	-0.167
AGGTTAAG	0.0826
CGCCCCGA	-0.308
GCACAAAC	0.0766
CCTGAAGG	-0.357
CCCCAACA	0.0173

Sequence	PBM E-score
CCAGTCGC	-0.208
ACCTACGA	0.00015
AGTGCCGC	-0.27
CAGGCCTA	-0.0179
CACTGATA	-0.0328
CCTCAGAA	-0.106
AGTTCCAG	-0.148
GTGACGTA	0.214
AGAGTTCG	0.0753
CGTAAGGA	-0.0158
ATCGATGA	0.225
CCTCTCCC	-0.235
ATCTCCAG	-0.134
TAGTAGCA	0.036
AAAATCTG	0.0313
CGCTTCCC	-0.0728
CGTATGAG	-0.0766
ATCTGTGA	-0.0783
AAAGCACC	-0.275
CAACCATG	0.127
CCGCGGCA	-0.245
AGCTTGAG	-0.187
GTGGCTCA	-0.127
CAAGTCAA	0.085
TAATGCTA	0.267

Sequence	PBM E-score
ACAGTCCA	0.0438
ACAAGAGG	0.0656
GGTTCCTA	-0.087
GATGGGCA	-0.112
AACGTCAA	0.186
CTTGTGAA	0.182
AAACGCCA	0.0702
ATAGGACC	-0.146
AATATGGT	-0.0785
AAGGTGCA	-0.0293
CGTAGTCC	-0.176
AAGGAAAG	-0.28
CCCTTATA	-0.002
AACGGGGC	-0.247
CTCAAGTC	-0.11
AGTAGCCA	-0.274
ATTTTCTC	-0.129
GATTGATA	0.148
AAAGACCT	-0.206
AGATTCGA	-0.134
CTGATAGA	0.0465
CATGCTGC	0.00676
CTCATGCA	-0.0449
TTATTAAA	0.246
GGCATGCC	-0.191

Sequence	PBM E-score
CTCTATCC	-0.271
GGTTCTAC	0.0675
GTCGACTA	0.168
CTTGCTCC	-0.194
ACTTGGGA	-0.23
AATTCAAG	0.144
GCTCAAAA	-0.0457
ATAAGATG	-0.0523
CATATGTC	-0.0145
CATGCTAG	0.19
ATACCACC	-0.141
GGCTCACC	-0.298
TGCAACAA	0.226
GCGGAGCC	-0.284
GTATTAGA	0.289
ACCAGCAG	-0.248
CACTCTAC	0.269
TCAAACCA	0.123
AGCCAGGA	-0.152
ACATTCAT	0.259
CGGTGGTC	-0.22
ATCGGGCA	-0.13
CCGCCATA	-0.0564
CATCTCCG	0.0167
AAGCCACA	-0.0453

Sequence	PBM E-score
CCCACTCC	-0.241
ATTCTTCC	-0.227
GCACACCA	-0.0935
CCCGGAGC	-0.221
GTCCATTA	0.184
TCGCGTCA	0.21
ATGTCTGC	0.0622
AACGACCC	-0.223
GCACTATA	-0.0092
CGCGATAA	0.0422
CAGATGGA	-0.0765
ACTACACA	0.406
TGACAGAA	0.0794
ATGAAAAC	0.17
AACAGGTC	0.0824
CACAGACA	0.168
CCGATAAA	-0.0565
GGGTGATA	-0.271
CTCCTAAG	-0.115
AGGGGCCG	-0.365
ATGCATTG	0.122
AAACTGGG	-0.278
ATTACGCA	0.435
CTATGCCC	-0.266
ATTCCATG	0.122

Sequence	PBM E-score
AAACCTCT	-0.08
CGAGGTCC	-0.214
GACCATCC	-0.268
GATATACA	0.339
ACTCCGTG	-0.0267
AGAGTTCC	-0.262
ACCTTGTC	0.0297
AGAGTCCG	-0.152
CCTTGGTA	0.14
CACGTCGA	0.109
AGCACTAA	-0.106
AGGTAGGC	-0.315
CATTGAGG	-0.0995
CGGGATTC	0.00245
CTTTGGTC	-0.0966
AACGCTAA	0.00237
AGTTCTCC	-0.286
GCTTGTAA	0.411
CTAAATCC	-0.229
ATCCATGG	-0.148
CTCACAAG	-0.0443
CGTATATA	0.276
GAGATCAA	-0.0313
AAGCTGAT	0.0747
CCCCGAAG	-0.211

Sequence	PBM E-score
CCTATAGA	-0.193
ATGTTTCA	0.13
GAAGGGAC	-0.27
AAGACCAT	-0.215
CCGGGACC	-0.341
GGATCAAA	-0.0579
GGATCGCC	-0.144
AAAGACGA	-0.0132
AGGGAGAG	-0.258
GACAGGTA	-0.0962
CACAGCAC	0.165
ACAAGTAC	0.165
GGCTACAC	0.164
AGGACAAG	-0.0379
AATTTTCG	0.046
ACGCGAGA	0.186
GCAAACGA	0.119
CTATCTTC	-0.02
GAGCAAAC	0.00373
AGGACTAT	-0.156
GAAGCGGA	-0.149
CCCGGCGA	-0.168
CCCCTAAC	-0.217
CATCACAG	0.0154
ATGACCAT	0.0709

Sequence	PBM E-score
CACGAAGG	-0.00404
AACGACGT	0.148
CTGCATGA	-0.271
CCAACGCG	0.202
AACGCCAT	0.00213
CATTGACA	0.255
AGTATATG	-0.0273
CCCTCGTA	0.0861
AGGGCGTG	-0.0225
CGCCCGGC	-0.302
GGAACCGA	-0.13
CCAATGAA	-0.202
CCCCCTAC	-0.279
CGTGTATC	0.332
ACCACTGA	-0.123
ATATAGTC	0.0845
AAGATTCC	0.0157
GCTGAACC	-0.0421
ACACCCGA	-0.012
GGAGTACC	-0.114
ATGAAATC	0.18
CGAGAGAA	-0.0824
CCGTAATA	0.159
CGAGGCAC	-0.203
CTCGTTTC	-0.12

Sequence	PBM E-score
GGAATTAC	0.271
AATAGGAT	0.105
CGCTCTCA	-0.165
TACGTTGA	0.266
TAGTGTCA	0.0999
AGAATCCT	-0.161
AGCTTCAA	0.0171
TCCCGGAA	-0.207
ATTCACCC	-0.215
ATTTTAAC	0.313
AAGACAGC	-0.0479
GAAATCGA	-0.169
CCCTTCGA	-0.27
AGAACTCC	-0.137
GAGGTTGC	-0.183
GTGGGGTA	-0.102
ACTCGTTG	0.134
AACATGAA	0.397
TGTTCGAA	0.147
AAGCAATC	0.00849
AAAGTAGC	-0.161
ACTCTGTA	0.204
ATGACGGG	-0.102
CATGGAAG	0.015
AACCCCCT	-0.179

Sequence	PBM E-score
CGTTATCA	0.187
TACAGTAA	0.201
CTTATGAA	0.0396
AAGTTTTA	0.213
GTTCGAAA	0.0864
ATAGGTTC	0.023
TGGCCCCA	-0.327
CCTAAGAG	-0.136
ACTTGGGC	-0.278
AGAGAACC	-0.234
GAATTCCA	-0.0553
AAATCTTC	0.0872
AGTCACGC	-0.202
CCGATCGA	-0.125
ACCTGCCT	-0.147
CTAGATAG	0.0174
ATACGGAA	0.0413
TCCCAGGA	-0.361
GATAGAAA	-0.0893
ACCGCGAC	-0.0174
CCGTAGAA	-0.0337
GGACGCTA	-0.091
AAGCTTGC	-0.0359
GGCCCATA	-0.146
CCCGGTCC	-0.383

Sequence	PBM E-score
AGAAAATA	-0.04
CACGTGGG	-0.103
AAAAATAA	0.131
TTAAGAAA	0.137
GCTCAAGC	-0.236
ATTCCCGG	0.0259
CGGCAGTA	-0.297
AGGTAGAG	0.079
ACAGCGAC	-0.15
ATGCGCGC	0.108
ACTTAAAA	0.193
GTTATCGA	0.0323
ACGGTTGC	-0.0543
AAGGGGCC	-0.273
CGGCTATC	-0.192
CTGGCCAA	-0.0171
CCCATAGG	-0.23
CACATTCC	0.0026
CCTTGGCA	-0.285
GTATCAAA	0.176
AAGCCCTA	0.0656
CCCTGCAA	-0.124
CTTAACAC	0.419
ACGGGAGT	-0.0916
AGTTATTG	0.105

Sequence	PBM E-score
CACCTCGC	-0.276
CAAGCGTA	0.231
AACTATTC	-0.0344
ATCTTTTC	0.038
TGTGGAAA	0.174
GGTGGTCA	-0.279
ACTCCACC	-0.158
AGGCAGAG	-0.147
ATTCCCGC	-0.0624
CCCGCTGA	-0.28
CCCTATTC	-0.322
AGGAGCCG	-0.281
AGAGAACA	0.174
ACATAGCC	0.231
CCAACACC	-0.206
AAAACTCC	-0.134
AAAGTGTG	0.124
GTCGTAAA	0.244
AGAACAAT	0.223

— the supplement of paper PMC3334620
